One molecule from US20210061922A1 (published 2021) can be followed below.

In this assay the target is Her2 (human, UniProt P04626 in part). Briefly: SPR.

B1: Bispecific (switchblade): trastuzumab light chain - protease site - antiCD16 - linker - trastuzumab heavy chain (bispecific antibody)
chain: DIQMTQSPILLSASVGDRVTITCRASQDVNTAVAWYQQRTNGSPRLLIYSASFLYSGVPSRFSGSRSGTDFTLTISSLQPEDIADYYCQQHYTTPPTFGAGTKVEIKRTVAAPSVFIFPPSDEQLKSGTASVVCLLNNFYPREAKVQWKVDNALQSGNSQESVTEQDSKDSTYSLSSTLTLSKADYEKHKVYACEVTHQGLSSPVTKSFNRGECGGAGGSTSTSGRSANPRGGEVQLTESGGEDVQAGGSLRLSCSASGLTFSSYNMGWFRRAPGKEREFVASITWSGRDTFYADSVKGRFTISRDNAKNTVYLQMSSLKPEDTATYYCAANPWPVAAPRSGTYWGEGTQVTVASGAGAS[about 200 residues not given here]
Molecule B1 registered a Kd of 740 pM.
